# Experimental data published in the supplement of paper PMC8728848.
# Some of the results follow.
# B1: Epa10 (protein)
# chain: MNEKIFRYLTLLFLFELARSLPVEDKLNIKKVFEKRAVDFTPFAHYPRPEGCSSPPNSVSVGLHMNLYNYPYLYVKPSTKGMFTNDTNSDADGETDGDSAGGIEGRAGQCWNPEYQDPNFPRFGYKQYGEFGASDNVNGDISWDHNEFTEGCKPVLAALPPGYNYPDEITFSNFTMVLSGYFKPKTSGVYKFELKADDFILFNFGAKNAFECCNREESIDNFGPYVAYAMWPNQADQELEVYLFEDSYYPLRLFYNNRDYHSKFKIGFYPPGQTTITFDFDGYLFMLDDTGNECRDSIRYRTVCDDKVVDDTTYSTRYSTSMVPGGGSDVITIYYIRMKCEEEDCLGQWDPINNVCYSPDDCADDGGYWNGQMCDQSCKLEGGIVNPDTGDCDKSCIESGGFLDENGNCDTTCRDDGGMLVEGQCDYQCKEAGGILVGDHCDTTCVDSGGKLNEDGTCDHSCRDQGGQLDENGECDTSCKDSGGMLIEGECDTSCKDEGGQLDDNNECINHCKDQGGIIDENGNCDTSCKDSGGKLDESGACDTSCRDDGGIIDENGNCNTTCRDDGGIIVGDHCDTSCRDAGGILIEDHCDTTCRDSGGKLNEDGTCDHSCRDQGGQLDENGKCDYSCKNGGGKLDEDGNCDMSCKENGGKLDENGDCDLSCKEDGGKLDGNGDCDYSCKEEGGVIDESGNCNTTCKDSGGQIIDGECNYGCIEVGGVVIDGECDTSCIDSGGILDGDGNCDRSCIESGGVLEDGACNTTCRDSGGQLNVDGTCDTSCRDDGGMLVEGQCDYQCKEAGGILEDGECVFPPTSSSTSETSSTTDQSSLQSDDSSMESSSTPMDSSTIESSSSEIITSESESESVPIASSSSEVMTSESESESIPILTSSSEIPIASSSSEIPVASSSSEIIIPESESESVPVASSSSEIPIASSSSEIPVASSSSEIPVASSSSEIIIPESESESIPIESTSSEAVSSRSESDSSYPTPTPTTTTITTWPNPIQPTTSNSSPIVSSSTETPGIAESSSRISDLESSRRTSILGDDRTRTRTTITSTITEDGQIITITTTVTGFVPEPTGETEGNGSDDENPENPIENNTDENEFLDPEFTDDIPDDPAGPEDNGNGPVNPEQGNDNDPVNLEDSGNNGAVNPEQAPVNDEDNGGNDPVNPEQDNNNGPANPGQDSTNGSGNSDQIDNNPPTPEENAGDGNSNGNDPADPSRRTSILGDERTRASPGGTSQPTGANGNVNGNSPGANVNGGGTGNSNNNNNNNNNNNNGNAPNGGDGSNGDANQGPSRRTSLLGDERTRAGQAAPTGGSSPDNGIAGDTSNNGGAIVSQQVDDGGAGSPRRTSILGDVRSRTTLNGEVLNFEGSGVRRAVAGNLALPLMMVGLVFNL
# Key:
# Assay in all cases: glycan array binding signal (z-score within array); higher = stronger binding
# Conditions in all cases: glycan notation: IUPAC condensed, linker removed
# [1] = target: Neu5Ac(a2-3)Gal(b1-4)GlcNAc(b1-2)[Neu5Ac(a2-3)Gal(b1-4)GlcNAc(b1-4)]Man(a1-3)[GlcNAc(b1-4)][Neu5Ac(a2-3)Gal(b1-4)GlcNAc(b1-2)[Neu5Ac(a2-3)Gal(b1-4)GlcNAc(b1-6)]Man(a1-6)]Man(b1-4)GlcNAc(b1-4)GlcNAc
# Summary of the method: (§1)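 The binding signal is a Z-score computed within each array and averaged over linkers. Arrays of the same protein sequence at different concentrations or buffers were also averaged together. Data originate from 3228 arrays in the Consortium for Functional Glycomics database, kept only where the protein sequence was available.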
# [2] = target: Neu5Ac(a2-3)Gal(b1-4)GlcNAc(b1-2)[Neu5Ac(a2-3)Gal(b1-4)GlcNAc(b1-4)]Man(a1-3)[GlcNAc(b1-4)][Neu5Ac(a2-3)Gal(b1-4)GlcNAc(b1-4)Man(a1-6)]Man(b1-4)GlcNAc(b1-4)GlcNAc
# Summary of the method: as §1
# [3] = target: Neu5Ac(a2-3)Gal(b1-4)GlcNAc(b1-2)[Neu5Ac(a2-3)Gal(b1-4)GlcNAc(b1-6)]Man(a1-6)[Neu5Ac(a2-3)Gal(b1-4)GlcNAc(b1-2)Man(a1-3)][GlcNAc(b1-4)]Man(b1-4)GlcNAc(b1-4)GlcNAc
# Summary of the method: as §1
# [4] = target: Neu5Ac(a2-3)Gal(b1-4)GlcNAc(b1-3)Gal
# Summary of the method: as §1
# [5] = target: Neu5Ac(a2-3)Gal(b1-4)GlcNAc(b1-3)Gal(b1-3)GlcNAc
# Summary of the method: as §1
# [6] = target: Neu5Ac(a2-3)Gal(b1-4)GlcNAc(b1-3)Gal(b1-4)GlcNAc
# Summary of the method: as §1
# [7] = target: Neu5Ac(a2-3)Gal(b1-4)GlcNAc(b1-3)Gal(b1-4)GlcNAc(b1-2)Man(a1-3)[Neu5Ac(a2-3)Gal(b1-4)GlcNAc(b1-3)Gal(b1-4)GlcNAc(b1-2)Man(a1-6)]Man(b1-4)GlcNAc(b1-4)GlcNAc
# Summary of the method: as §1
# [8] = target: Neu5Ac(a2-3)Gal(b1-4)GlcNAc(b1-3)Gal(b1-4)GlcNAc(b1-3)Gal(b1-4)GlcNAc
# Summary of the method: as §1
# [9] = target: Neu5Ac(a2-3)Gal(b1-4)GlcNAc(b1-3)Gal(b1-4)GlcNAc(b1-3)Gal(b1-4)GlcNAc(b1-2)Man(a1-3)[Neu5Ac(a2-3)Gal(b1-4)GlcNAc(b1-3)Gal(b1-4)GlcNAc(b1-3)Gal(b1-4)GlcNAc(b1-2)Man(a1-6)]GalNAc
# Summary of the method: as §1
# [10] = target: Neu5Ac(a2-3)Gal(b1-4)GlcNAc(b1-3)Gal(b1-4)GlcNAc(b1-3)GalNAc
# Summary of the method: as §1
# [11] = target: Neu5Ac(a2-3)Gal(b1-4)GlcNAc(b1-3)Gal(b1-4)GlcNAc(b1-3)[Neu5Ac(a2-3)Gal(b1-4)GlcNAc(b1-3)Gal(b1-4)GlcNAc(b1-6)]GalNAc
# Summary of the method: as §1
# [12] = target: Neu5Ac(a2-3)Gal(b1-4)GlcNAc(b1-3)Gal(b1-4)GlcNAc(b1-6)[Gal(b1-3)]GalNAc
# Summary of the method: as §1
# [13] = target: Neu5Ac(a2-3)Gal(b1-4)GlcNAc(b1-3)Gal(b1-4)[Fuc(a1-3)]GlcNAc
# Summary of the method: as §1
# [14] = target: Neu5Ac(a2-3)Gal(b1-4)GlcNAc(b1-3)GalNAc
# Summary of the method: as §1
# [15] = target: Neu5Ac(a2-3)Gal(b1-4)GlcNAc(b1-3)[Neu5Ac(a2-3)Gal(b1-4)GlcNAc(b1-6)]GalNAc
# Summary of the method: as §1
# [16] = target: Neu5Ac(a2-3)Gal(b1-4)GlcNAc(b1-6)GalNAc
# Summary of the method: as §1
# [17] = target: Neu5Ac(a2-3)Gal(b1-4)GlcNAc(b1-6)[Gal(b1-3)]GalNAc
# Summary of the method: as §1
# [18] = target: Neu5Ac(a2-3)Gal(b1-4)GlcNAc(b1-6)[Neu5Ac(a2-3)Gal(b1-3)]GalNAc
# Summary of the method: as §1
# [19] = target: Neu5Ac(a2-3)Gal(b1-4)GlcNAc6S
# Summary of the method: as §1
# [20] = target: Neu5Ac(a2-3)Gal(b1-4)[Fuc(a1-3)]GlcNAc
# Summary of the method: as §1
# [21] = target: Neu5Ac(a2-3)Gal(b1-4)[Fuc(a1-3)]GlcNAc(b1-2)Man
# Summary of the method: as §1
# [22] = target: Neu5Ac(a2-3)Gal(b1-4)[Fuc(a1-3)]GlcNAc(b1-3)Gal
# Summary of the method: as §1
# [23] = target: Neu5Ac(a2-3)Gal(b1-4)[Fuc(a1-3)]GlcNAc(b1-3)Gal(b1-4)GlcNAc
# Summary of the method: as §1
# [24] = target: Neu5Ac(a2-3)Gal(b1-4)[Fuc(a1-3)]GlcNAc(b1-3)Gal(b1-4)[Fuc(a1-3)]GlcNAc(b1-3)Gal(b1-4)[Fuc(a1-3)]GlcNAc
# Summary of the method: as §1
# [25] = target: Neu5Ac(a2-3)Gal(b1-4)[Fuc(a1-3)]GlcNAc(b1-3)GalNAc
# Summary of the method: as §1
# [26] = target: Neu5Ac(a2-3)Gal(b1-4)[Fuc(a1-3)]GlcNAc(b1-6)[Gal(b1-3)]GalNAc
# Summary of the method: as §1
# [27] = target: Neu5Ac(a2-3)Gal(b1-4)[Fuc(a1-3)]GlcNAc(b1-6)[Neu5Ac(a2-3)Gal(b1-3)]GalNAc
# Summary of the method: as §1
# [28] = target: Neu5Ac(a2-3)Gal(b1-4)[Fuc(a1-3)]GlcNAc6S
# Summary of the method: as §1
# [29] = target: Neu5Ac(a2-3)Gal6S(b1-4)GlcNAc
# Summary of the method: as §1
# [30] = target: Neu5Ac(a2-3)Gal6S(b1-4)[Fuc(a1-3)]GlcNAc
# Summary of the method: as §1
# Neu5Ac(a2-3)GalNAc = target: Neu5Ac(a2-3)GalNAc
# Summary of the method: as §1
# [31] = target: Neu5Ac(a2-3)GalNAc(b1-4)GlcNAc
# Summary of the method: as §1
# [32] = target: Neu5Ac(a2-3)[GalNAc(b1-4)]Gal(b1-4)Glc
# Summary of the method: as §1
# [33] = target: Neu5Ac(a2-3)[GalNAc(b1-4)]Gal(b1-4)GlcNAc
# Summary of the method: as §1
# [34] = target: Neu5Ac(a2-3)[GalNAc(b1-4)]Gal(b1-4)GlcNAc(b1-3)GalNAc
# Summary of the method: as §1
# [35] = target: Neu5Ac(a2-3)[Neu5Ac(a2-6)]GalNAc
# Summary of the method: as §1
# Neu5Ac(a2-6)Gal = target: Neu5Ac(a2-6)Gal
# Summary of the method: as §1
# [36] = target: Neu5Ac(a2-6)Gal(b1-3)GlcNAc(b1-3)[Gal(b1-4)GlcNAc(b1-6)]Gal(b1-4)Glc
# Summary of the method: as §1
# Neu5Ac(a2-6)Gal(b1-4)Glc = target: Neu5Ac(a2-6)Gal(b1-4)Glc
# Summary of the method: as §1
# [37] = target: Neu5Ac(a2-6)Gal(b1-4)GlcNAc
# Summary of the method: as §1
# [38] = target: Neu5Ac(a2-6)Gal(b1-4)GlcNAc(b1-2)Man
# Summary of the method: as §1
# [39] = target: Neu5Ac(a2-6)Gal(b1-4)GlcNAc(b1-2)Man(a1-3)Man(b1-4)GlcNAc(b1-4)GlcNAc
# Summary of the method: as §1
# [40] = target: Neu5Ac(a2-6)Gal(b1-4)GlcNAc(b1-2)Man(a1-3)[Gal(b1-4)GlcNAc(b1-2)Man(a1-6)]Man(b1-4)GlcNAc(b1-4)GlcNAc
# Summary of the method: as §1
# [41] = target: Neu5Ac(a2-6)Gal(b1-4)GlcNAc(b1-2)Man(a1-3)[GlcNAc(b1-2)Man(a1-6)]Man(b1-4)GlcNAc(b1-4)GlcNAc
# Summary of the method: as §1
# [42] = target: Neu5Ac(a2-6)Gal(b1-4)GlcNAc(b1-2)Man(a1-3)[GlcNAc(b1-4)][Neu5Ac(a2-6)Gal(b1-4)GlcNAc(b1-2)Man(a1-6)]Man(b1-4)GlcNAc(b1-4)GlcNAc
# Summary of the method: as §1
binder,measurement,setting,value
B1,glycan array binding signal (z-score),[1],-0.221
same,glycan array binding signal (z-score),[2],-0.16
same,glycan array binding signal (z-score),[3],-0.298
same,glycan array binding signal (z-score),[4],-0.172
same,glycan array binding signal (z-score),[5],-0.284
same,glycan array binding signal (z-score),[6],-0.259
same,glycan array binding signal (z-score),[7],-0.037
same,glycan array binding signal (z-score),[8],-0.197
same,glycan array binding signal (z-score),[9],-0.156
same,glycan array binding signal (z-score),[10],-0.244
same,glycan array binding signal (z-score),[11],-0.234
same,glycan array binding signal (z-score),[12],0.519
same,glycan array binding signal (z-score),[13],-0.305
same,glycan array binding signal (z-score),[14],-0.204
same,glycan array binding signal (z-score),[15],-0.282
same,glycan array binding signal (z-score),[16],-0.223
same,glycan array binding signal (z-score),[17],0.907
same,glycan array binding signal (z-score),[18],-0.259
same,glycan array binding signal (z-score),[19],-0.221
same,glycan array binding signal (z-score),[20],-0.278
same,glycan array binding signal (z-score),[21],-0.151
same,glycan array binding signal (z-score),[22],-0.302
same,glycan array binding signal (z-score),[23],-0.147
same,glycan array binding signal (z-score),[24],-0.17
same,glycan array binding signal (z-score),[25],0.026
same,glycan array binding signal (z-score),[26],-0.023
same,glycan array binding signal (z-score),[27],-0.149
same,glycan array binding signal (z-score),[28],-0.185
same,glycan array binding signal (z-score),[29],-0.25
same,glycan array binding signal (z-score),[30],-0.301
same,glycan array binding signal (z-score),Neu5Ac(a2-3)GalNAc,-0.27
same,glycan array binding signal (z-score),[31],-0.195
same,glycan array binding signal (z-score),[32],-0.243
same,glycan array binding signal (z-score),[33],-0.226
same,glycan array binding signal (z-score),[34],-0.25
same,glycan array binding signal (z-score),[35],-0.226
same,glycan array binding signal (z-score),Neu5Ac(a2-6)Gal,-0.249
same,glycan array binding signal (z-score),[36],-0.285
same,glycan array binding signal (z-score),Neu5Ac(a2-6)Gal(b1-4)Glc,-0.264
same,glycan array binding signal (z-score),[37],-0.235
same,glycan array binding signal (z-score),[38],-0.218
same,glycan array binding signal (z-score),[39],-0.174
same,glycan array binding signal (z-score),[40],-0.179
same,glycan array binding signal (z-score),[41],-0.287
same,glycan array binding signal (z-score),[42],-0.196
